Measurements taken from publication doi:10.1101/2020.04.11.036434 (bioRxiv, 2020).

Target: P-Rex2 (WT), recombinant full-length (UniProt Q70Z35 1-1606)
Assay: SPR

B1: Gβγ (Gβ1 and His-Gγ2 (C68S)) (complex)
chain 1: not shown
chain 2: not shown
  Kd: 0.1 µM
